The supplement of paper PMC3334620
In all, about 33,000 sequences were measured (“E-score (-0.5 to 0.5)”: median about -0.012, highest 2% from about 0.27 on). The list shows a part of the results.

These sequences were tested against T1, Vhr1 (UniProt P40522) (assay: PBM E-score (8-mer binding enrichment) (E-score (-0.5 to 0.5)); higher = stronger / more preferred TF binding; most listed sequences are background and not binding sites). Conditions: protein concentration: 200 nM; construct: GST-full length.
T1 sequence: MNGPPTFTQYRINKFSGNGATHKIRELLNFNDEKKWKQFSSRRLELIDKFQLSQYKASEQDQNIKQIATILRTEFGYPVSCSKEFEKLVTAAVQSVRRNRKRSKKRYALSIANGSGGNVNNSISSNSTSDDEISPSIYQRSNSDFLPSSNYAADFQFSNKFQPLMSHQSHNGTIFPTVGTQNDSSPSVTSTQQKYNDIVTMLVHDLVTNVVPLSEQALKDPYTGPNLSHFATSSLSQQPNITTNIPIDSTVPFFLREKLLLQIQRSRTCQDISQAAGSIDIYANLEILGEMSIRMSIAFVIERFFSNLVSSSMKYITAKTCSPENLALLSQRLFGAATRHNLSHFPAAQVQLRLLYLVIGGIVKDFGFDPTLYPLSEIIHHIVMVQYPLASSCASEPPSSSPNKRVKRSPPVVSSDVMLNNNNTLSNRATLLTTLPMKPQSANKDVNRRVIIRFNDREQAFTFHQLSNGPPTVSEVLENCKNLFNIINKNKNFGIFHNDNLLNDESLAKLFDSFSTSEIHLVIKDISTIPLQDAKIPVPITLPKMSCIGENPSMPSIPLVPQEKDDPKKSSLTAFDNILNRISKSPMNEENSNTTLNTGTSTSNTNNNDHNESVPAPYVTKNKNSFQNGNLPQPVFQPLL
In short: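 PURExpress in vitro transcription/translation supplied GST-tagged yeast transcription factors, either full-length or DNA-binding domain. Applied at about 100-200 nM to universal all-10-mer Agilent arrays double-stranded by primer extension, the bound protein was detected with fluorescent anti-GST. E-scores, modified Wilcoxon-Mann-Whitney statistics, were given by the Universal PBM Analysis Suite to ungapped eight-base words pooled with their reverse complements after masliner normalisation.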

Sequence	PBM E-score
AAAGTATA	-0.0402
ACAGTGGG	-0.133
CAAGCAAC	-0.035
ACCGAAGA	-0.0336
CTCGGCAA	-0.0876
AATTCTAG	-0.0244
ATTGGCTA	-0.0602
GTAACGTA	-0.0191
CTTTATCC	-0.245
AGTTTAGA	-0.129
AAACACGT	0.0232
AGGTGGAA	0.0199
CCTATAAG	-0.0556
ACAAGTCG	-0.0907
ACAGATCC	0.0599
AATCAATT	0.0578
AGGATACC	0.0279
AGGCACTA	-0.0871
AGCTAGCG	-0.23
ATACGTCC	-0.149
CATTTCTA	-0.233
AGAGTTGA	-0.032
AGATTTCG	-0.0515
TGTACCAA	0.0576
ACCGGCCG	0.0877

Sequence	PBM E-score
GAACCCAC	0.236
GACGGGAA	-0.0963
GAAGTCCC	-0.237
ATGATACG	0.228
CTCTGGCC	-0.0748
GTGACCAA	0.109
AGGGTGAC	0.2
GACCTTAA	-0.232
CTATATCC	-0.00727
ATATCCTC	0.0521
CGACATTC	0.0738
AGAGTACT	0.0467
CAACTTGG	0.0538
AGGGTGAG	0.0893
CCATGACA	0.115
CTGCTGGA	-0.027
ATAAACTC	0.0222
ACCTATTA	-0.0246
ACAAGCCA	0.0302
CAGTATCG	0.0981
ATTCATAA	0.0567
CCGCACAG	0.0492
CGGCAAGC	-0.173
CCCTGGCG	-0.0364
CTCGTGCC	-0.0421

Sequence	PBM E-score
AGGCAATG	0.0629
CCCCCTGC	-0.163
AGTCCTGC	0.0877
CTGAGCAC	0.0507
AAGGGGTC	-0.231
GCAGACGC	0.0308
GAGGTACA	-0.00768
CTCGTCGA	-0.0786
GCCTCCCC	0.0909
AACTGAAT	0.00051
CTATTCGC	0.0141
GTAATCAA	0.184
AACTATCT	0.0639
CGATGCTA	-0.0631
CATGACAC	0.239
CCAACATA	0.214
CAAGTCTG	-0.0798
CCCTAAGC	-0.218
CGTGCGCA	-0.034
CAGGGTGA	0.114
AGTCGCTC	0.237
CAGCATTC	-0.0944
ATCTGAAC	-0.131
ACTTCTGG	-0.04
ACTTTGTG	0.139

Sequence	PBM E-score
GTTACATA	0.0716
ACCAAATA	0.197
CGCCACGA	-0.0781
GCCTGCAC	-0.0376
ACGCGGGA	-0.0173
CGTCTACA	-0.157
AACGGATG	0.132
GTTCGGTA	0.106
TGGCCGAA	-0.0892
CTCTCATA	0.00607
AGGCAGCA	-0.0663
AAGGTGAT	0.101
CGTGCCAG	-0.244
AATATAAT	-0.0316
CCGACGAC	0.127
ACCACAAA	0.0812
CCTTAGAC	-0.16
CTCCATTA	-0.0602
CCTACGCA	-0.0675
GCCATCAA	-0.189
CGTCTTCC	0.0433
TAACTTGA	-0.0113
AGCCTACT	-0.0677
ATCGTCCC	-0.00307
AACCTCGC	0.0241

Sequence	PBM E-score
CCCTCCAG	-0.0286
GACCGAGA	-0.0366
GTTGCCGA	-0.0824
AAGCGTCG	-0.212
AGATGACT	0.435
AATATTCG	0.0181
AGGCCTCG	-0.161
GCAAACGC	-0.0769
GACGTGCA	-0.137
CCCTACCC	-0.0329
TAGTAGGA	0.103
ACTAACAA	0.212
TCCAACAA	-0.095
GACGTATC	-0.164
CAATCTCG	0.0151
AAGGACGA	-0.186
ATGCTCCA	0.0701
GAATTCGC	0.106
AAAAGAGG	-0.134
CGACGCCG	0.2
GCTTTGAC	-0.0693
ACCGGGCC	0.00306
ACCGACAC	0.151
AGGTATAC	0.177
ACACCGTA	0.0319

Sequence	PBM E-score
ACTTCGCA	-0.113
CCTCATCC	-0.182
CAGGTAGC	0.0398
TAATTGTA	0.164
AGAACCTC	-0.217
CTGGGGAA	-0.136
ATCATCAC	0.197
CCGTAGCG	-0.291
TCTCAGAA	-0.137
CAATGCGC	0.0302
TGGGAAAA	-0.242
AAGCATTA	-0.115
AATATTGA	0.102
TCAAGTGA	-0.0308
CTACGGGC	-0.306
CAATATAG	0.179
CTGCACTA	-0.00552
AGGCATAA	-0.201
GTGCACAA	-0.125
ATTGTCTG	0.14
ATGGTCGG	0.0765
AGTACCGC	0.0571
CAGAAAGC	-0.0861
AAGTCCGT	-0.36
GGTTTAAA	-0.0589

Sequence	PBM E-score
ACGTCGAA	0.0232
CCGACCAC	0.22
ACTAGGAC	-0.138
AACTCTGA	0.0902
AGATCTTG	-0.0126
AACCAGAA	0.0466
GAAAGTGA	-0.0491
CTGAATTA	-0.00808
CTGCTAGC	-0.265
AAATTACT	-0.179
AGCGCAAT	-0.0761
ACTTTTAT	-0.304
AATAAGAT	-0.143
TAGCGTGA	0.00946
TGGGTACA	0.177
ATCATTTG	0.125
GGGTAATA	0.228
CGATACGA	-0.0911
CAGCAAAC	0.107
CCCTACTA	-0.158
GATATGTA	0.154
CATTGAAG	-0.159
